# Experimental data: PubChem BioAssay AID493208 (National Center for Advancing Translational Sciences (NCATS), 2011)
# Screen size: about 44,000 compounds; about 340 (0.77%) were called active. Inconclusive means that the source gave no clear call. Such entries were picked first, then a sample of the others. Calls come from the whole dose curve; as a rule, active = well fitted inhibition curve with a large enough effect; inconclusive = small, poorly fitted or top-dose-only effect; inactive = flat fitted curve, though single readings scatter. No potency is given beside an inconclusive call; the fits are too rough.
# Experiment: Acumen qHTS Assay for Inhibitors of the mTORC1 Signaling Pathway in MEF (Tsc2-/-, p53-/-) Cells: Sytravon; note: nearly all actives have a fitted effect of over 50% in size
# Details: phospho-rpS6 immunofluorescence/PI, 24 h; series mostly up to 38.3 µM
# Method in brief: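 Cell-based qHTS: Tsc2-/- p53-/- MEF, 24 h cpd, 37 °C; fix/perm, anti-phospho-S6 Alexa-488 + PI; Acumen 488 nm scan; pS6/PI ratio, % positive cells; rapamycin 7.5 nM = inhibition ref; PI count = viability.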
# Potency is the fitted concentration of half-maximal effect; tags give direction and shape of the fitted curve.
row,Structure (SMILES),Potency
1,Cc1ccc2ncc(C(=O)c3ccc(C)c(C)c3)c(S(=O)(=O)c3ccc(F)cc3)c2c1,"inconclusive [falling, full curve, poor fit]"
2,CCn1c(=O)cc(SCC(=O)NCc2cccc(Cl)c2)c2ccccc21,"inconclusive [falling, partial curve, poor fit]"
3,CSc1nc(Nc2ccc(F)cc2)cc(-c2ccccc2)n1,"inconclusive [falling, single point]"
4,CCOc1ccc(-c2nnc(SCC(=O)Nc3cccc(OC)c3)nc2-c2ccc(OCC)cc2)cc1,"inconclusive [falling, single point]"
5,CCCCN1C(=O)C(O)(CC(=O)c2ccc(C(C)(C)C)cc2)c2ccccc21 (stereo not drawn),"inconclusive [falling, single point]"
6,CCOc1cc(C#N)c(NC(=O)Cn2nnc(-c3ccc(C)cc3)n2)cc1OCC,"inconclusive [falling, single point]"
7,CCC(Sc1nnc(C)n2c1cc1occc12)C(=O)Nc1ccccc1OC (stereo not drawn),inactive
8,Cc1ccc(NC(=O)Cc2coc3ccc(C(C)C)cc23)cc1Cl,"inconclusive [falling, single point]"
9,Fc1ccc(-c2nc(Nc3cccc(C(F)(F)F)c3)nc3c2COc2ccccc2-3)cc1,"inconclusive [falling, single point]"
10,CSc1ccc(/C=C/c2nc3ccccc3n2S(=O)(=O)c2cccc(Cl)c2)cc1,inactive
11,CCOc1ccc(CN2C(=O)c3ccccc3Sc3ccc(C(=O)O)cc32)cc1,"inconclusive [falling, single point]"
12,O=C(NCCc1ccc(Cl)cc1)C(=O)NCC(c1ccco1)S(=O)(=O)c1ccc(Cl)cc1 (stereo not drawn),active: 1.17 µM
13,Cc1oc2ncnc(N3CCCCC3)c2c1C(=O)N1CCN(c2cccc(Cl)c2)CC1,"inconclusive [falling, single point]"
14,Clc1ccc(C(c2ccccc2)c2c[nH]c3ccccc23)s1 (stereo not drawn),"inconclusive [falling, single point]"
15,COc1ccc2nc(NC(=O)c3nc(SC(C)C)ncc3Cl)sc2c1,inactive
16,NC(=O)c1nc(Nc2ccccc2)sc1NC(=O)c1ccccc1Br,"inconclusive [falling, full curve, poor fit]"
17,CCOC(=O)c1cccc(NS(=O)(=O)c2ccc(-c3cnc(C4CC4)o3)cc2)c1,inactive
18,CC(C)(C)c1ccc(OCC(=O)Nc2ccc(S(=O)(=O)Nc3ncccn3)cc2)cc1,inactive
19,N#Cc1c(N)n(-c2cccc(Cl)c2)c2nc3ccccc3nc12,"inconclusive [falling, partial curve, poor fit]"
20,COc1ccc2c(c1)CC(C(=O)Nc1cc(Cl)ccc1C)CO2 (stereo not drawn),"inconclusive [falling, partial curve]"
21,COc1ccccc1CNS(=O)(=O)c1ccc(-c2cnc(C3CC3)o2)cc1,"inconclusive [falling, single point]"
22,COc1ccc2c(c1)Cc1sc(NC(=O)c3cccc(C)c3)nc1-2,inactive

row,Structure (SMILES),Potency
1,CCc1ccc(NS(=O)(=O)c2cc(-c3cnc(C4CC4)o3)ccc2C)cc1,inactive
2,COc1ccc(S(=O)(=O)c2c(C(=O)c3ccc(C)c(C)c3)cnc3ccc(F)cc23)cc1,"inconclusive [falling, partial curve, poor fit]"
3,CCOc1ccc(CNC(=O)CCCc2cn(C)c3ccccc23)cc1OC,"inconclusive [falling, single point]"
4,COc1cc(C2c3c(-c4ccccc4O)n[nH]c3C(=O)N2Cc2ccco2)ccc1OCC(C)C (stereo not drawn),"inconclusive [falling, single point]"
5,CCCc1nn2c(=O)cc(COc3ccc(/C=C(\C#N)C(=O)Nc4ccccc4)cc3)nc2s1,"inconclusive [falling, full curve, poor fit]"
6,CCN1CCOC(=O)C1CC(=O)Nc1cc(C)cc(C)c1 (stereo not drawn),active: 10.4 µM
7,COc1ccc(OCc2nc3c4c(-c5ccccc5)c(-c5ccccc5)oc4ncn3n2)cc1,"inconclusive [falling, single point]"
8,CCOC(=O)c1ccc(NC(=O)Cn2cc(C(=O)c3ccc(CC)cc3)c(=O)c3ccc(C)nc32)cc1,inactive
9,O=C(Nc1ccc2nc(SCC(=O)N3CCc4ccccc43)sc2c1)c1ccc(F)cc1,"inconclusive [falling, full curve]"
10,COc1cc(NC(=O)Cn2nc(C(F)(F)F)c3c2CCCC3)c(OC)cc1Cl,"inconclusive [falling, single point]"
11,CCn1ccc2cc(S(=O)(=O)N3CCCN(C(=O)NCC(C)C)CC3)ccc21,"inconclusive [falling, single point]"
12,COc1ccccc1N1CCN(c2csc3ccc(Cl)cc3c2=O)CC1,inactive
13,Cc1cccc(N2CCN(C(=O)CSCc3ccc(F)cc3)CC2)c1C,inactive
14,CCCNC(=O)c1cnn2c(C)c(Cc3c(C)cc(C)cc3C)c(C)nc12,inactive
15,CCCn1c2ccccc2c2cnn(CC(=O)NCc3ccccc3Cl)c(=O)c21,inactive
16,CCOc1ccc(-c2nc(SCC(=O)c3ccccc3)n[nH]2)cc1,"inconclusive [falling, partial curve, poor fit]"
17,CCOC(=O)c1c(NC(=O)c2ccc(S(=O)(=O)N3CCC(C)CC3)cc2)sc2c1CCN(CC)C2,"inconclusive [falling, single point]"
18,CCOC(=O)c1ccc(N2C(=O)c3n[nH]c(-c4ccco4)c3C2c2ccc(O)c(OCC)c2)cc1 (stereo not drawn),"inconclusive [falling, single point]"
19,CCOC(=O)c1cc(-c2ccccc2)n(CCCC(=O)Nc2cccc(C)c2C)c1C,inactive
20,N#Cc1ccccc1Cn1c(=O)n(-c2cccc(C(F)(F)F)c2)c(=O)c2sccc21,inactive
21,COc1ccccc1NC(=O)c1sc2nc(C)c(C(=O)Nc3ccc(C)cc3C)c(-c3cccs3)c2c1N,inactive
